# Reference: the supplement of paper PMC12632987
# Whole data set: some 2,300 sequences, median “median log2 fold change of GCK-ALFA target abundance (FLAG IP / Myc IP barcode read proportion)” near 0.095, cut for the lowest 2% near -0.47. The list shows a part of the results.
# B1: LC3A_28_1011 (protein)
# chain: MSLIEKTKEEAKKAIEEAKKGEDAFLEVEITEEATEEEVKEVLEIIEETAEEISKIENVKLYIVVDFDGDQEKLDLITDGLEEIEEKYPNVSSIIAYDEK
# B2: LC3A_28_939 (protein)
# chain: MTTEEDNAAALAKAKEAAAKGEPVVITLTVRGTDTEADIDRAIATLKEIAEILKDVKGAAIVVDVEAGVPEEHINRLADTGDEIEKKYPNINVIIALDED
# B3: LC3A_17_568 (protein)
# chain: TAELEAATAELLKTLEEAAKFAAKVDKEAAKKLKELIERVKAAAATKDPRTIATVGAEAAREAAEILESLKSPDPEKKEHLIMELEGDAIEFESLLLKLE
# B4: LC3A_free_8_2446 (protein)
# chain: KNQKLVTEITELLDELEEEVEKLAKELGLSRLDILELELEIGSVISDIIAATDDSIEKIKEIAEEDLEELEEIAKEYSEELAEKVREAKEEILELIEKYE
# B5: LC3A_free_39_2260 (protein)
# chain: AAERREAARARLLELAAKASPEVAAAVTALAELIADRVDALERLAELLERAIEKGPEVVAIAGQFAAEAVERIRAGADVDEAVEEMLRLIENAIEIEEID
# B6: LC3A_3_1599 (protein)
# chain: MEELVKELLERLRKAGFSEKVLEAAEKLLKALAEKGFEEAAEKAAEKLLENKDLPEELLVETLNELLYIVETEDLTEEEVIEKIEEEFEVARLEKEIEEL
# B7: LC3A_132_239 (protein)
# chain: NEELYEKLKKEIEEKLKEIEKNIDNLEKVKELVKELEKLLDKAEKELTPEQVLELAEETAEKLDEIREKAEEAGKEEVAALLENASMYADGIAIEAELKL
# B8: LC3A_28_1252 (protein)
# chain: SKVEEQLKKAKAEVKAAVAAGEEALVTLTVTKDTNQEDIEKIIEAMYELAELGKDLPALSIIIDVEKGVKQEHIDKLADAGEELEKKYPNVTVIIALEEE
# B9: LC3A_free_26_2133 (protein)
# chain: EEWLDIAALDKAIELVEKILEELEKRPGKYEKLLEKVKKALELLEKETLESLKKAAELLKEILKELKELKPEDPELMERLLKLVEEALELVEENIEIMES
# B10: LC3A_28_818 (protein)
# chain: SAAEKTIAALRAQAEAAKNSKEPVLLEVDVSGTITLEEAERLMEELERLSKELSKKHKVYVVINFTEPVAPEVQNLIMDKAEEIEEKYPNVSIIIALPEE
# B11: LC3A_17_538 (protein)
# chain: MEELREELEETLEELEALVKRIAPHLPEAAKKAREELKEARKLLEAGDLRAAAELVVKTADELADAIEKAKFEDPVQKEVLIMEAEGLAIEAESILLRLE
# B12: LC3A_45_1994 (protein)
# chain: MYRATVDVLVPREKAEEVAELAREIARELERKSNGKLTVDFEKFEETYEATKDEEDVLFEIVIYGEDKDLVLDAAVELSDRLIEKTGGVVSSIISVEELP
# B13: LC3A_3_1859 (protein)
# chain: MEEIKKEIIELLKSLGRSEEVIEAAERLANLLIERGYKEALETLLEELKKLKDVSDEILLAMFEDLIEALETEDLSEEELIERIEEEARIALNDQEIEEL
# B14: LC3A_147_464 (protein)
# chain: MKYRVELDVLVKNLTPELLADFEELAEEIKKKFPDAEVELKVETDPEDPSLSLVTLTVTVDTEEDAKKIEDFLDKKLEELEKKYKDQILASMISREKVEP
# B15: LC3A_28_1046 (protein)
# chain: MELEKSAEAAIAEAKAQFAQGEEAVVTLKVPNIDTETAKKIVTETLETLIALSKEHGGQKVHVVIDLDGDQETLNAIIDVAEAAEAADPNLTVIIAYNDK
# B16: LC3A_28_1258 (protein)
# chain: SPLEENLKAAIEEVEKAVAKGEEAVVTITVPAGITEEEVEKVIETMEKIAEIGKDLKSVTIIVDVEKGVDQKHIDKLADKGEELEKKYPNLTVIFALEEE
# B17: LC3A_3_1868 (protein)
# chain: MDEIIEEILKLLKELGRSEETIEAAKKLLEALKEKGYENAAKTLLEELKKLKNVSDEDLKAMFEELLKAVTEENLNEEETIKLINEEASILLNDLEIEEL
# B18: LC3A_28_1309 (protein)
# chain: SRLEERFEAAIKEAEEAAKKGEEVVVTIDITAEEAREHLEEILELLERLAEVASKVPNAVIIIDVDEKVPQEELDAITDKADELEEKYPNVTVIIAISDE
# B19: LC3A_17_586 (protein)
# chain: SEEIKKELEELLKKLEALIKEAKALGLPEAEKIEKLLKEAKKKLKEGDLKEAAKLLEKAADLLADAFAEIEDEKGDLASLLEMEASGLELEAIRLLLKLE
# Target: MAP1LC3A, Q9H492
# Assay: median log2 fold change of GCK-ALFA target abundance (FLAG IP / Myc IP barcode read proportion) (log2 ratio); each designed protein is fused to an ALFA-tag nanobody in HEK293 cells to bring the named protein to FLAG-tagged glucokinase (GCK); Myc marks an untargeted standard; higher = target protein stabilised (more abundant)
# Details: target protein: 3xFLAG-MCP-GCK-ALFA reporter; HEK293 landing pad (RPLP)
# Method in brief: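 HEK293 landing-pad cells received a recombined binder library fused to the ALFA nanobody and were induced with 2 μg mL^−1 doxycycline, then transfected with a plasmid encoding a FLAG-tagged target and a Myc-tagged standard. Lysates were collected after 48 h for anti-FLAG and anti-Myc immunoprecipitation, and the circular RNA barcodes were reverse transcribed, amplified and sequenced. Target abundance for each binder is the median log2 ratio of FLAG to Myc barcode read proportions. Barcodes had to reach a proportion of at least 10^−7 in both replicates, each binder needed at least 3 barcodes per replicate, a pseudocount of 10^−6 was applied, and the two replicates were pooled.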
row,Binder,median log2 fold change
1,B1,-0.21
2,B2,0.0548
3,B3,0.256
4,B4,-0.14
5,B5,0.275
6,B6,0.0961
7,B7,0.0241
8,B8,0.158
9,B9,-0.322
10,B10,-0.294
11,B11,-0.126
12,B12,-0.143
13,B13,0.169
14,B14,-0.487
15,B15,0.0196
16,B16,0.162
17,B17,0.4
18,B18,0.0103
19,B19,0.168
